Measured values: PubChem BioAssay AID488969 (Vanderbilt High Throughput Screening Facility, 2010)
The full ranking holds about 110,000 compounds; the median of “z-score” is about -0.1, and the highest 2% start at about 2. The list shows a part of the results.

Each molecule was assayed against Metabotropic glutamate receptor 8 (Rattus norvegicus) (UniProt P70579) (assay: mGluR8 Gi/Go-coupled signaling modulation – cell-based, rat, thallium flux, HTS, primary screen (AID 488969)). Settings: HEK293 rat mGluR8, GIRK (G protein-gated inwardly rectifying potassium channel) thallium flux, FluoZin2; at 10 µM; stronger effect = higher value; submaximal glutamate (EC20) added with thallium.
UniProt P70579, sequence (P70579 whole entry, looked up): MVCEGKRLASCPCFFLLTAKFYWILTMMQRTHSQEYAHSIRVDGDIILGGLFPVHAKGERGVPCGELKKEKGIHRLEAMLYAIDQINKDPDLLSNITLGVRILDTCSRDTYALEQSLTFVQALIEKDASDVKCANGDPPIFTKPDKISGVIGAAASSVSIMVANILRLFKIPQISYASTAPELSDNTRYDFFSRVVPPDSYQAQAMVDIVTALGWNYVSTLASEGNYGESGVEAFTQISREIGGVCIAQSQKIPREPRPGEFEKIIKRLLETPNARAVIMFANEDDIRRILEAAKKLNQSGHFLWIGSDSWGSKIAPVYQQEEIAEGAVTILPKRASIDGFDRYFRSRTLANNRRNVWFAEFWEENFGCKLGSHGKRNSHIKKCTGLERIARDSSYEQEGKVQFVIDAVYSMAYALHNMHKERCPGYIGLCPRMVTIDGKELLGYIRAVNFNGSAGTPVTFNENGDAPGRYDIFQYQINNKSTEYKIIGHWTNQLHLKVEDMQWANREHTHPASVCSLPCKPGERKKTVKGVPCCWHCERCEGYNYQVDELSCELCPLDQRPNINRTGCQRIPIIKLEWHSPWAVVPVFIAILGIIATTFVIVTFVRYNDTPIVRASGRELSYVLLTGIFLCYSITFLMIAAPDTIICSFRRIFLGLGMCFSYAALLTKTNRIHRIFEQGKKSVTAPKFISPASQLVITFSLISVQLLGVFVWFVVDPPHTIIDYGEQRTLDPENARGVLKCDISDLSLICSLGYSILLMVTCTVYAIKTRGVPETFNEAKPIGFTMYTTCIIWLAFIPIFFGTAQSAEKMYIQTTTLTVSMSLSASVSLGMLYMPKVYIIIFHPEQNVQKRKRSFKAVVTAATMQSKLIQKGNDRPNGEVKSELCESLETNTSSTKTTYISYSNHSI
Work on `COC(=O)c1ccccc1NC(=O)CSc1nnc(-c2ccc(C)cc2)o1` yielded a z-score of -0.262. `Cc1ccc(OCCn2cc(/C=C(\C#N)C(=O)NCC3CCCO3)c3ccccc32)cc1C` (stereo not given) gave a z-score of -0.333. In the case of `O=C(Cc1ccccc1)Nc1ccc(N2CCOCC2)cc1N1CCOCC1`, the z-score is reported as -0.544. Work on `O=C(COc1ccc([N+](=O)[O-])cc1)NCc1cccnc1` yielded a z-score of -0.0376. `CC(C)(C)NC(=O)Cn1nnc(-c2cccs2)n1` showed a z-score of -0.167. `COc1cc(OC)c(OC)cc1NC(=O)CC1COc2ccccc2O1` (stereo not given) gave a z-score of -0.0814. With `CN(C)c1ccc(C(=O)c2ccc(N(C)C)c(N)c2)cc1N` the z-score was -0.143. With `Cc1ccc(-n2nnc3c(SCC(=O)NCc4ccco4)ncnc32)cc1` the z-score was 0.269. `Cc1csc(SCc2nc3sc4c(c3c(=O)[nH]2)CCC4)n1` showed a z-score of 0.454. In the case of `Nc1nonc1-c1nc2ccccc2n1Cc1ccc(F)cc1`, the z-score is reported as -0.145. `CCOC(=O)N1CCN(C(=O)c2ccc3c(=O)n(-c4ccc(F)cc4)c(=S)[nH]c3c2)CC1` gave a z-score of -1.16. Molecule `COC(=O)c1ccccc1NC(=S)NC(=O)C1CC1` has a z-score of -0.189. For `Cc1ccc(S(=O)(=O)NCCCCCC(=O)N(C)C)cc1`, the z-score was 2.19. `O=C(CN1CCCCCC1)Nc1ccc(F)c(F)c1` gave a z-score of 0.471. In the case of `CCOC(=O)Cc1cc(=O)n2[nH]c(C)c(-c3ccc(OC)cc3)c2n1`, the z-score is reported as -0.933. Molecule `O=C(c1ccc(Br)cc1)c1cc([N+](=O)[O-])ccc1N1CCCCC1` has a z-score of -0.166. Molecule `CN1C(=O)C(CC(=O)N2CCN(C(c3ccccc3)c3ccccc3)CC2)N(C)C1=O` (stereo not given) has a z-score of 0.633. In the case of `Cc1c(C(=O)O)oc2c3c(ccc12)OCCO3`, the z-score is reported as -0.0103. Work on `CC(C)CNC(=O)NC(=O)COC(=O)c1cccc(NS(=O)(=O)c2ccc(F)c(F)c2)c1` yielded a z-score of -0.289. `O=c1[nH]cnc2c1sc1nc3c(c(-c4ccc(Cl)cc4)c12)CCC3` showed a z-score of -0.722. With `CN(Cc1ccccc1)S(=O)(=O)c1ccc(S(=O)(=O)N(Cc2ccc(F)cc2)C2CCCC2)cc1` the z-score was -0.232. `CCOc1ccc(N2CC(C(=O)NCCN3C(=O)S/C(=C\c4ccc(OC)cc4)C3=O)CC2=O)cc1` (stereo not given) showed a z-score of 0.109. `CC(=O)Nc1ccc2c(c1)N(C(=O)CN(C)C)c1ccccc1CC2` gave a z-score of 0.0846. In the case of `N#CC1=C(N)Oc2cc3c(cc2C1c1ccc(Cl)cc1)OCO3` (stereo not given), the z-score is reported as 0.119. In the case of `O=C(Cc1cccc2ccccc12)N/N=C/c1ccc(OC(=O)/C=C/c2ccco2)cc1`, the z-score is reported as -0.0231. `CC1CCCCC1NC(=O)c1ccc(N2CCCC2=O)cc1` (stereo not given) showed a z-score of 0.0276. For `CC(=O)c1c(C(C)=O)c(C)n(C2CCCCC2)c1C`, the z-score was 0.23. With `CCS(=O)(=O)N1Cc2ccccc2CC1C(=O)OCC(=O)Nc1ccc(C)cc1` (stereo not given) the z-score was -0.847. Molecule `COc1cccc(N2C(=O)C3CCCN3C2c2ccc(Cl)cc2)c1` (stereo not given) has a z-score of -0.0283. Work on `COc1ccc(C)cc1NC(=O)CN(C)S(=O)(=O)c1cnc[nH]1` yielded a z-score of 0.179. `COc1ccc(N/C(N)=N/c2nc(CSc3ccc(Cl)cc3)cc(=O)[nH]2)cc1` was tested, and the z-score was -0.284. Work on `COCC(=O)Nc1ccc(C(N)=O)cc1` yielded a z-score of -0.00575. `O=C(N/N=C/c1cc(Br)c(Br)o1)C(O)c1ccccc1` (stereo not given) gave a z-score of -0.119. With `CC(=O)NS(=O)(=O)c1ccc(NC(=O)/C=C/c2ccccc2Cl)cc1` the z-score was -0.0146. In the case of `Cc1nc(C)c(C(=O)C2=C(O)C(=O)N(CCCn3ccnc3)C2c2ccc(Cl)cc2)s1` (stereo not given), the z-score is reported as 0.983. In the case of `Clc1ccc(OCc2nc(-c3ccncc3)no2)c(Cl)c1`, the z-score is reported as -0.0686. With `O=c1c2cnn(-c3ccccc3)c2nnn1/N=C/c1cccnc1` the z-score was 0.0346. Molecule `O=C(CN(Cc1ccccc1)S(=O)(=O)c1ccc2c(c1)OCCO2)N/N=C/c1ccc(F)cc1` has a z-score of 0.352. `c1ccc(N2CCN(c3ncnc4sc5c(c34)CCC5)CC2)cc1` showed a z-score of -0.0951. With `O=Cc1ccc(-c2ccccc2OC(F)(F)F)o1` the z-score was -0.317. In the case of `O=C(Nc1ccc(N2CCOCC2)c(Cl)c1)c1cc2ccccc2o1`, the z-score is reported as -0.897. `Cc1ccc(NC(=S)NN2CCN(C)CC2)cc1` showed a z-score of -2.12. `CC(Sc1nnc(C(C)N(C)C)n1-c1ccc(Cl)cc1)C(=O)Nc1ccc2c(c1)OCO2` (stereo not given) showed a z-score of -0.446. In the case of `COC(=O)c1cccnc1N1CCN(c2ccccc2F)CC1`, the z-score is reported as -0.0799. Molecule `Cc1c(C=O)c(C=O)c(C)n1Cc1ccccc1` has a z-score of -0.295. With `O=C(NCCCn1ccnc1)c1ccc(Cl)c(S(=O)(=O)N2CCOCC2)c1` the z-score was -0.619. `O=C(Nc1nc(-c2ccc(S(=O)(=O)N3CCCC3)cc2)cs1)c1ccco1` was tested, and the z-score was -0.0484. With `C/C(=N\OC(=O)c1ccc(Cl)c(Cl)c1)c1sc(C)nc1C` the z-score was -0.197. Work on `O=C(Nc1cccc2ccccc12)C1CCN(C(=O)Cc2ccccc2)CC1` yielded a z-score of -0.0484. In the case of `Cc1cc(Nc2ccccc2)n(-c2cccc(Cl)c2)n1`, the z-score is reported as -0.114. `C=CCn1c(SCC(=O)NCc2ccco2)nc2sc(C)c(C)c2c1=O` was tested, and the z-score was -0.948. `O=[N+]([O-])c1ncn(Cc2c(Cl)cccc2Cl)n1` gave a z-score of 0.0141. With `C=CCNc1nc(-c2ccc(O)c(C(N)=O)c2)cs1` the z-score was -0.471. Molecule `CCN(CC)CCCNC(=O)C1c2ccccc2Oc2ccccc21` has a z-score of 0.199. `S=C(c1ccc(-c2ccccc2Cl)o1)N1CCCCC1` was tested, and the z-score was 0.632. With `Cc1nc2ccc(NC(=O)c3ccc(S(=O)(=O)N4CCOCC4)cc3)cc2s1` the z-score was -0.182. `COc1cc(C(=O)O/N=C(\N)c2ccncc2)cc(OC)c1OC` gave a z-score of -0.016. For `CC(=O)c1c(COC(=O)c2ccccc2)nc2ccccc2[n+]1[O-]`, the z-score was -0.211. For `Cc1ccc(OCC(=O)NNC(=O)CCC(=O)NCc2ccccc2)cc1`, the z-score was -0.189. `COc1ccccc1-c1nnc(SC2CCc3ccccc3NC2=O)s1` (stereo not given) gave a z-score of 0.0734. `Cc1ccc(-n2c(O)c(/C=C3/C(c4ccccc4)=Nc4ccccc43)c(=O)[nH]c2=O)cc1` gave a z-score of -0.911. With `C/C(NC(=O)c1ccccc1F)=C1\C(=O)C[C@@H]2[C@H]1C2(C)C` the z-score was -0.743. `O=C(O)Cn1c(=O)cnc2ccccc21` showed a z-score of 0.0695. `Cc1onc(-c2ccccc2Cl)c1C(=O)Nc1nnc(-c2ccc(Br)cc2)s1` showed a z-score of 0.231. `CCCCN1C(=O)CC(Nc2ccc(CC)cc2)C1=O` (stereo not given) gave a z-score of -0.437. In the case of `Cc1[nH]nc2c1C(c1ccccc1)C1=C(CC(C)(C)CC1=O)N2` (stereo not given), the z-score is reported as -1.05. Work on `COc1ccc(OCCCN2CCCC(C)C2)cc1` (stereo not given) yielded a z-score of 0.314. Molecule `CCn1c2ccccc2c2cc(NC(=O)c3ccc([N+](=O)[O-])cc3)ccc21` has a z-score of -0.215. Molecule `CC1CCCCC12NC(=O)N(CC(=O)NC(=O)Nc1ccc3c(c1)OCCO3)C2=O` (stereo not given) has a z-score of -0.152. `Cc1ccc2[nH]c3c(c2c1)CN(C(=O)CN1CCN(c2cccc(C)c2C)CC1)CC3` gave a z-score of -0.0108.
